Results taken from PubChem BioAssay AID686978 (National Center for Advancing Translational Sciences (NCATS), 2013).
Among all 420,000 compounds or so, about 64,000 (15%) were called active. The shares of active, inactive and inconclusive entries below differ from those in the screen. Calls come from the whole dose curve; as a rule, active = well fitted inhibition curve with a large enough effect; inconclusive = small, poorly fitted or top-dose-only effect; inactive = flat fitted curve, though single readings scatter. Potencies of inconclusive entries are left out as doubtful fits.

test: qHTS for Inhibitors of human tyrosyl-DNA phosphodiesterase 1 (TDP1): qHTS in cells in absence of CPT; settings: DT40 Tdp1-/- hTDP1 cells, no CPT, ATP luminescence, 48 h; activity change, negative = growth inhibition: at 46.2 µM (top of the series) unless noted; note: nearly all actives have a fitted effect of over 55% in size
How it was run: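 Chicken DT40 Tdp1-/- cells stably complemented with human TDP1 were seeded at 400 cells/well with DMSO in place of 20 nM camptothecin. After compound pinning, cells grew at least 48 hr at 37 °C; viability read by CellTiter-Glo luminescence.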
% is set by controls: 0 for no effect and ±100 for the full control effect; potency is the fitted concentration of half-maximal effect; tags give direction and shape of the fitted curve.

Row | Structure (SMILES) | Potency | activity change, negative = growth inhibition
1 | CN(C)S(=O)(=O)c1ccc(S(=O)(=O)Nc2ccc3c(c2)oc2ccccc23)cc1 | inconclusive [inhibitor, partial curve] | 
2 | COc1ccc(-c2c(-c3ccc(C#N)cc3)oc(=O)c3cc(OC)c(OC)cc23)cc1 | active: 16.4 µM | 
3 | CCn1nnc(NC(=O)c2cc(Cl)c(OC)c(Cl)c2)n1 |  | inactive: -21.1%
4 | CCCCn1c(SCC(=O)N(C)C)nnc1-c1ccncc1 |  | inactive: -0.612%
5 | CCN(c1ccccc1)S(=O)(=O)c1cccc(C(=O)OCC(=O)c2c(N)n(C)c(=O)n(C)c2=O)c1 | active: 18.4 µM | 
6 | CN(CC(=O)Nc1ccc(Cl)c(C(F)(F)F)c1)C(=O)Cc1cccs1 | inconclusive [inhibitor, single point] | 
7 | Cc1nn(Cc2ccc(F)cc2Cl)c(C)c1[N+](=O)[O-] |  | inactive: -13.2%
8 | O=C(Nc1ccc2c(c1)C(=O)NC2=O)c1cccc(Cl)c1 |  | inactive: -9.77%
9 | COc1ccc(C2C(C(=O)c3ccco3)=C(O)C(=O)N2CCN2CCOCC2)cc1 (stereo not given) |  | inconclusive: -30.1% [inhibitor]
10 | C[C@H]1CN([C@@H](C)CO)C(=O)CCCn2cc(nn2)CO[C@@H]1CN(C)C(=O)Oc1ccccc1 |  | inactive: 17.7%
11 | COc1ccc(OC)c2sc(N(CCN(C)C)C(=O)/C=C/c3cccs3)nc12 | inconclusive [inhibitor, partial curve, poor fit] | 
12 | Cc1ccc(S(=O)(=O)Nc2ccccc2F)cc1C(=O)N1CCN(c2ccccc2O)CC1 |  | inactive: -10.3%
13 | C/C=C/C1=CC(=O)C[C@H](c2ccc(Cl)cc2)C1 | inconclusive [inhibitor, single point] | 
14 | CC(C)(C)c1ccc(/C=N/NC(=S)NCc2ccccc2)cc1 | inconclusive [inhibitor, single point] | 
15 | Cc1ccc(S(=O)(=O)N(C)c2ccc(OCC(=O)NCC3(N(C)C)CCCCC3)cc2)cc1 | inconclusive [inhibitor, single point] | 
16 | O=c1ccc(-c2ccc(S(=O)(=O)NCC3CCN(Cc4ccccc4F)CC3)s2)n[nH]1 |  | inactive: 18.1%
17 | Cc1cc(C(=O)NNc2cc(Cl)ccc2Cl)no1 | inconclusive [inhibitor, single point] | 
18 | Cc1ccc(Cl)c2sc(NC(=O)C3=COCCO3)nc12 |  | inactive: -13%
19 | Cc1ccc(C)c(NC(=S)NNC(=S)Nc2ccc(C(C)C)cc2)c1 | inconclusive [inhibitor, single point] | 
20 | COCCCn1c(=O)c2ccccc2n2c(=S)[nH]nc12 |  | inactive: -2.82%
21 | CCCc1cc(C(=O)Nc2c(C)nn(Cc3ccc(C)cc3)c2C)no1 | inconclusive [inhibitor, partial curve, poor fit] | 
22 | CCN1CCN(C(c2ccccc2)c2nnnn2C(C)(C)C)CC1 (stereo not given) |  | inactive: 2.41%
23 | CCOC(=O)c1c(C)[nH]c(C)c1C(=O)COc1ncnc2ccccc12 | inconclusive [inhibitor, single point] | 
24 | CC(CC(=O)Nc1nccs1)c1ccccc1 (stereo not given) | inconclusive [inhibitor, partial curve, poor fit] | 
25 | O=C(CCn1c(=O)c2cccn2c2ccc(F)cc21)NCCc1ccccc1 | active: 18.4 µM | 

Row | Structure (SMILES) | Potency | activity change, negative = growth inhibition
26 | C[C@@H]1CN([C@H](C)CO)C(=O)c2cc(Br)cnc2O[C@H]1CN(C)C(=O)CC1CC1 |  | inactive: 6.21%
27 | Cc1ccc(S(=O)(=O)n2nc(-n3c(C)ccc3C)c3c(F)cccc32)c2ccccc12 | inconclusive [inhibitor, single point] | 
28 | CN(/N=C/c1ccc(N(C)C)cc1)C1=NS(=O)(=O)c2ccccc21 | inconclusive [inhibitor, full curve] | 
29 | CCOC(=O)c1[nH]c(C)c(/C(O)=C2\C(=O)C(=O)N(CCCN3CCOCC3)C2c2cccs2)c1C (stereo not given) |  | inactive: -11%
30 | Cc1nc(OCC(=O)c2ccc(Cl)cc2)c(C#N)c2c1COC(C)(C)C2 | inconclusive [inhibitor, single point] | 
31 | Cc1cc(NC(=O)CSCC(=O)N(C)Cc2ccc(Cl)cc2Cl)no1 |  | inconclusive: -31.9% [inhibitor]
32 | Oc1ccc(N=Nc2ccccc2-c2nn[nH]n2)c(O)c1 |  | inactive: -18.7%
33 | CCC(=O)N1CCc2cc(CNC(=O)C(CC)c3ccccc3)ccc21 (stereo not given) |  | inactive: -21.1%
34 | Cc1ccc(C(O)c2ncc(-c3ccccc3Cl)[nH]2)cc1 (stereo not given) | inconclusive [inhibitor, single point] | 
35 | Cc1cc(OCC(=O)NCc2ccncc2)c2c(C)cc(=O)oc2c1 |  | inactive: 23.8%
36 | Cc1nn(-c2ccccc2)c2sc(C(=O)OCc3nnc(-c4ccccc4)o3)cc12 | inconclusive [inhibitor, partial curve] | 
37 | COc1cc(=O)[nH]c(SC(C)C(=O)Nc2nc3c(s2)CCCC3)n1 (stereo not given) |  | inactive: -14.5%
38 | O=C(CCCn1ncn2c(cc3occc32)c1=O)N1CCc2ccccc2C1 |  | inactive: -12.6%
39 | Cc1ccc(C(=O)Nc2ccc(NC(=O)c3cccs3)cc2)c(C)c1 |  | inactive: -23.5%
40 | Cc1cc(NC(=O)c2c(F)cccc2Cl)n(-c2nc3ccccc3[nH]2)n1 | active: 23.1 µM | 
41 | CCOC(=O)C1=C(CNCc2ccc(C)cc2)NC(=O)NC1c1ccc(OC)cc1 (stereo not given) | active: 20.6 µM | 
42 | Cc1nc2ccccc2nc(C)c1=NO |  | inactive: -17.6%
43 | COc1cccc(CN(C)Cc2cc(=O)oc3cc(O)c(Cl)cc23)c1 | inconclusive [inhibitor, single point] | 
44 | COc1ccc(CN(C)C(=O)CNC(=O)c2sc3ccccc3c2Cl)c(OC)c1 | inconclusive [inhibitor, single point] | 
45 | COc1cc2[nH]c(=S)n(C3CCN(Cc4ccccc4)CC3)c(=O)c2cc1OC | active: 18.4 µM | 
46 | Cc1cccc(NC(=S)NC2CCCCCC2)c1C | active: 10.3 µM | 
47 | C[C@@H]1Cn2cnc(C(=O)N[C@@H](C)c3ccccc3)c2C(=O)N1 | inconclusive [inhibitor, single point] | 
48 | CC(Oc1ccccc1Cl)C(=O)N(Cc1ccco1)C1CCS(=O)(=O)C1 (stereo not given) |  | inactive: -3.03%
49 | CCOC(=O)CSc1nc(-c2ccccc2)cc(C(F)(F)F)c1C#N |  | inactive: -11.1%
50 | Cc1ccc(NC(=O)c2c(C(=O)Nc3ccccc3)sc3nc(C)cc(=O)n23)c(C)c1 | inconclusive [inhibitor, single point] | 
